Source: patent publication US20230301999A1, “METHODS OF TREATING GOUT” (Horizon Therapeutics USA, Inc., priority 2020, published 2023)

How the values were obtained:
[1] = system: adult patients with uncontrolled gout; experiment: Open-label study: tender joint count (68-point) and swollen joint count (66-point); format: in vivo, human; details: mITT Population
[2] = system: adult patients with uncontrolled gout; experiment: Open-label study: number of joints affected by tophi; format: in vivo, human; details: mITT population
Source text: Estimation of the mean change from baseline in number of joints affected by tophi in subjects receiving pegloticase with MTX.

[3] = Day 1, change from Methotrexate Baseline
[4] = Early Termination Visit, change from Methotrexate Baseline
[5] = Early Termination Visit, change from Pegloticase Baseline
[6] = Early Termination Visit, Methotrexate Baseline table
[7] = Early Termination Visit, Pegloticase Baseline table
[8] = End of Pegloticase Infusions Visit, change from Pegloticase Baseline
[9] = End of Pegloticase Infusions Visit, Methotrexate Baseline table
[10] = End of Pegloticase Infusions Visit, Pegloticase Baseline table
[11] = Week 14, change from Methotrexate Baseline
[12] = Week 14, Methotrexate Baseline table
[13] = Week 14, Pegloticase Baseline table
[14] = Week 24, change from Methotrexate Baseline
[15] = Week 24, change from Pegloticase Baseline
[16] = Week 24, Methotrexate Baseline table
[17] = Week 24, Pegloticase Baseline table
[18] = Week 36, change from Methotrexate Baseline
[19] = Week 36, change from Pegloticase Baseline
[20] = Week 36, Methotrexate Baseline table
[21] = Week 36, Pegloticase Baseline table
[22] = Week 52/ET, Methotrexate Baseline table
[23] = Week 52/ET, Pegloticase Baseline table

pegloticase
Swollen Joint Count, Change from Baseline, Median [1, 3]: 0.5 | Tender Joint Count, Change from Baseline, Median [1, 3]: 0.0 | Tender Joint Count, Observed, Median ([1]; Day 1, Methotrexate Baseline table): 7.0 | Swollen Joint Count, Change from Baseline, Median [1, 4]: 0.0 | Tender Joint Count, Change from Baseline, Median [1, 4]: 2.0 | Swollen Joint Count, Change from Baseline, Median [1, 5]: −4.0 | Tender Joint Count, Change from Baseline, Median [1, 5]: −4.0 | Swollen Joint Count, Observed, Median [1, 6]: 1.0 | Tender Joint Count, Observed, Median [1, 6]: 3.0 | Swollen Joint Count, Observed, Median [1, 7]: 1.0 | Tender Joint Count, Observed, Median [1, 7]: 3.0 | Swollen Joint Count, Change from Baseline, Median ([1]; End of Pegloticase Infusions Visit, change from Methotrexate Baseline): −7.0 | Swollen Joint Count, Change from Baseline, Median [1, 8]: −2.0 | Tender Joint Count, Change from Baseline, Median [1, 8]: −3.0 | Swollen Joint Count, Observed, Mean (SD) [1, 9]: 0.0 (0.00) | Swollen Joint Count, Observed, Median [1, 9]: 0.0 | Tender Joint Count, Observed, Median [1, 9]: 2.0 | Swollen Joint Count, Observed, Mean (SD) [1, 10]: 0.0 (0.00) | Swollen Joint Count, Observed, Median [1, 10]: 0.0 | Tender Joint Count, Observed, Median [1, 10]: 2.0 | Swollen Joint Count, Change from Baseline, Median [1, 11]: −2.0 | Tender Joint Count, Change from Baseline, Median [1, 11]: 0.0 | Tender Joint Count, Change from Baseline, Median ([1]; Week 14, change from Pegloticase Baseline): −5.0 | Swollen Joint Count, Observed, Median [1, 12]: 0.0 | Tender Joint Count, Observed, Median [1, 12]: 2.0 | Swollen Joint Count, Observed, Median [1, 13]: 0.0 | Tender Joint Count, Observed, Median [1, 13]: 2.0 | Swollen Joint Count, Change from Baseline, Median [1, 14]: −3.0 | Tender Joint Count, Change from Baseline, Median [1, 14]: −4.0 | Swollen Joint Count, Change from Baseline, Median [1, 15]: −3.0 | Tender Joint Count, Change from Baseline, Median [1, 15]: −4.0 | Swollen Joint Count, Observed, Median [1, 16]: 0.0 | Tender Joint Count, Observed, Median [1, 16]: 0.0 | Swollen Joint Count, Observed, Median [1, 17]: 0.0 | Tender Joint Count, Observed, Median [1, 17]: 0.0 | Swollen Joint Count, Change from Baseline, Median [1, 18]: −3.0 | Tender Joint Count, Change from Baseline, Median [1, 18]: −7.0 | Swollen Joint Count, Change from Baseline, Median [1, 19]: −4.0 | Tender Joint Count, Change from Baseline, Median [1, 19]: −4.0 | Swollen Joint Count, Observed, Median [1, 20]: 0.0 | Tender Joint Count, Observed, Median [1, 20]: 0.0 | Swollen Joint Count, Observed, Median [1, 21]: 0.0 | Tender Joint Count, Observed, Median [1, 21]: 0.0 | Swollen Joint Count, Observed, Mean (SD) [1, 22]: 0.0 (0.00) | Swollen Joint Count, Observed, Median [1, 22]: 0.0 | Tender Joint Count, Observed, Median [1, 22]: 4.0 | Swollen Joint Count, Observed, Mean (SD) [1, 23]: 0.0 (0.00) | Swollen Joint Count, Observed, Median [1, 23]: 0.0 | Tender Joint Count, Observed, Median [1, 23]: 4.0 | Number of joints affected by tophi, change from baseline, mean (SD) ([2]; Week 24, n=9): −4.7 (6.36) | Number of joints affected by tophi, change from baseline, median ([2]; Week 24, n=9): −3.0 | Number of joints affected by tophi, observed, mean (SD) ([2]; Week 24, n=9): 4.0 (3.64) | Number of joints affected by tophi, observed, median ([2]; Week 24, n=9): 3.0 | Number of joints affected by tophi, change from baseline, mean (SD) ([2]; Week 36, n=4): −11.5 (7.33) | Number of joints affected by tophi, change from baseline, median ([2]; Week 36, n=4): −9.0 | Number of joints affected by tophi, observed, mean (SD) ([2]; Week 36, n=4): 3.3 (3.86) | Number of joints affected by tophi, observed, median ([2]; Week 36, n=4): 1.5 | Number of joints affected by tophi, change from baseline, mean (SD) ([2]; Week 52/ET, n=2): −17.0 (9.90) | Number of joints affected by tophi, change from baseline, median ([2]; Week 52/ET, n=2): −17.0 | Number of joints affected by tophi, observed, mean (SD) ([2]; Week 52/ET, n=2): 5.0 (2.83) | Number of joints affected by tophi, observed, median ([2]; Week 52/ET, n=2): 5.0
